# Assay results from the supplement of paper PMC4604168 (melanoma cell lines).
# The list shows a part of the results. Most values come without repeats; read them as rough.
# How the values were obtained:
# Test in all cases: cell count relative to DMSO control; melanoma cells; higher = more viable cells
# Conditions in all cases: library dose: low library concentration; 72 h
# [1] = system: MZ2-MEL
# [2] = system: MeWo
# [3] = system: RPMI7951
# [4] = system: RVH-421
# [5] = system: SkMel28
# [6] = system: SkMel30
# [7] = system: SkMel5
# [8] = system: UACC257
# [9] = system: UACC62
# [10] = system: WM115
# [11] = system: WM1716
# [12] = system: WM1745
# [13] = system: WM3526
# [14] = system: WM3619
# [15] = system: WM451Lu
# [16] = system: SkMel2
# 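Further: cell number obtained by counting DAPI-stained nuclei in high-throughput microscope images with image analysis software, screen run in 1,536-well plates.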
SMILES,cell count [1],cell count [2],cell count [3],cell count [4],cell count [5],cell count [6],cell count [7],cell count [8],cell count [9],cell count [10],cell count [11],cell count [12],cell count [13],cell count [14],cell count [15],cell count [16]
"CN(NC(=O)CC(=O)NN(C)C(=S)c1ccccc1)C(=S)c1ccccc1 + C/C(O)=C(\C#N)C(=O)Nc1cc(Br)ccc1Br [LFM-A13] (first compound 0.006 µM, partner dose 2 µM)",97.4%,84%,117%,78%,80.6%,93.7%,96.5%,60.6%,68.4%,75.8%,64.3%,9.86%,102%,25.1%,99.8%,
"NC(=O)c1ccc(N(C(N)=O)c2c(F)cccc2F)nc1-c1ccc(F)cc1F + C[As](C)SC[C@H](NC(=O)CC[C@H](N)C(=O)O)C(=O)NCC(=O)O [Darinaparsin] (first compound 0.4 µM, partner dose 0.4 µM)",117%,78.7%,100%,89.1%,102%,92.5%,,,95.8%,92.5%,114%,107%,88.2%,101%,103%,98.6%
"NCC(=O)Nc1ccc(-n2nc(C(F)(F)F)cc2-c2ccc3c(ccc4ccccc43)c2)cc1 + O=C(Oc1ccc([N+](=O)[O-])cc1)N1CCC(C(O)(c2ccc3c(c2)OCO3)c2ccc3c(c2)OCO3)CC1 [JZL184] (first compound 1 µM, partner dose 1 µM)",106%,73.1%,124%,85%,84.2%,68.4%,99.8%,129%,120%,105%,99.8%,103%,69.3%,102%,63.1%,
"Cn1cnc2c(F)c(Nc3ccc(Br)cc3Cl)c(C(=O)NOCCO)cc21 [selumetinib] + N.N.[Cl][Pt][Cl] [cisplatin] (first compound 0.015 µM, partner dose 1.6 µM)",103%,103%,105%,88.5%,85%,77.5%,,,78.6%,88.7%,110%,88.4%,88.6%,86.6%,87.6%,83.2%
"CO[C@@H]1[C@H](N(C)C(=O)c2ccccc2)C[C@H]2O[C@]1(C)n1c3ccccc3c3c4c(c5c6ccccc6n2c5c31)C(=O)NC4 [Midostaurin] + C/C(O)=C(\C#N)C(=O)Nc1cc(Br)ccc1Br [LFM-A13] (first compound 0.08 µM, partner dose 2 µM)",88.8%,84.5%,77.9%,111%,76.5%,84.3%,86.4%,82.6%,80.2%,80.5%,79.9%,90.8%,93.7%,94.8%,102%,
"NC(=O)Nc1cc(-c2cccc(F)c2)sc1C(=O)N[C@H]1CCCNC1 + O=C(Oc1ccc([N+](=O)[O-])cc1)N1CCC(C(O)(c2ccc3c(c2)OCO3)c2ccc3c(c2)OCO3)CC1 [JZL184] (first compound 0.02 µM, partner dose 1 µM)",99.2%,90.5%,98.8%,119%,93.5%,93.3%,94.4%,95.7%,109%,98.4%,96.9%,103%,91.6%,82.6%,76.7%,
"CN(c1ncccc1CNc1nc(Nc2ccc3c(c2)CC(=O)N3)ncc1C(F)(F)F)S(C)(=O)=O + C[As](C)SC[C@H](NC(=O)CC[C@H](N)C(=O)O)C(=O)NCC(=O)O [Darinaparsin] (first compound 0.08 µM, partner dose 0.4 µM)",86.4%,101%,80%,86%,89%,95.5%,,,80.5%,85.6%,88%,86.5%,87.6%,96.8%,89.7%,83.3%
"COc1cc([C@@H]2c3cc4c(cc3[C@@H](O[C@@H]3O[C@@H]5CO[C@@H](C)O[C@H]5[C@H](O)[C@H]3O)[C@H]3COC(=O)[C@H]23)OCO4)cc(OC)c1O [etoposide] + N.N.[Cl][Pt][Cl] [cisplatin] (first compound 0.02 µM, partner dose 1.6 µM)",83.1%,82.9%,74.1%,82.9%,83.3%,90.8%,,,86.5%,84.2%,87.2%,99.8%,83.6%,75%,85.6%,88.2%
"CC(C)(C)c1cnc(CSc2cnc(NC(=O)C3CCNCC3)s2)o1 + Cc1cc(SCc2sc(-c3ccc(C(F)(F)F)c(F)c3)nc2C)ccc1OCC(=O)O [GW0742] (first compound 0.01 µM, partner dose 2 µM)",102%,100%,87%,107%,91.6%,124%,103%,86.2%,90.1%,97.4%,102%,91.8%,151%,124%,96.2%,
"C[C@]1(O)C[C@@H](c2nc(-c3ccc4ccc(-c5ccccc5)nc4c3)c3c(N)nccn32)C1 + C[As](C)SC[C@H](NC(=O)CC[C@H](N)C(=O)O)C(=O)NCC(=O)O [Darinaparsin] (first compound 0.4 µM, partner dose 0.4 µM)",91.3%,90.1%,81.1%,89.9%,96.1%,82.9%,,,84.4%,102%,105%,82%,71.8%,106%,93.1%,82.1%
